Test results as given in patent publication US20240343791A1 (YUANPU BIOTECHNOLOGY WUHAN, published 2024).
Where two headings read alike, the source gives them in different places.

T1: human VEGFC (Cat. No. Z03286, Genscript) (human, UniProt P49767 112-227, limits assumed)
T1 construct: Bought protein; also called VC
T1 sequence (looked up): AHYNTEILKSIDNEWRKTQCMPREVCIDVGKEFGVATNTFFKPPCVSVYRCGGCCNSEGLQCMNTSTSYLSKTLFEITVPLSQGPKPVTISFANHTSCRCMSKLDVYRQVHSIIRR

T2: human VEGFA (Cat. No. Z03073, Genscript) (human, UniProt P15692-4 27-191)
T2 construct: Bought protein; also called VA; VEGFA165
T2 sequence (looked up): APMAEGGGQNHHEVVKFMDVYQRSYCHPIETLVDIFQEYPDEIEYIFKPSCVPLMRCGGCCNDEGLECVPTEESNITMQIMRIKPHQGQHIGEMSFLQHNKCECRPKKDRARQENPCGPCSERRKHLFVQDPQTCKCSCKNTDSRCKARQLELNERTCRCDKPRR

T3: VEGFC-his (Cat. No. VEC-H4225, AcroBio systems) (UniProt P49767 112-227, limits assumed)
T3 construct: also called VEGFC-his dimer; not shown: His tag
T3 sequence (looked up): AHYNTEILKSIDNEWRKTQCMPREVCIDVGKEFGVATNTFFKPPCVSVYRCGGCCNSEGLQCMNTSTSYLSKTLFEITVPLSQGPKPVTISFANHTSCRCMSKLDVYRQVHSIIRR

T4: Human VEGFC Protein (His Tag) (Cat. No. 10542-H08H, Sino Biological) (human, UniProt P49767 32-227)
T4 construct: not shown: His tag
T4 sequence (looked up): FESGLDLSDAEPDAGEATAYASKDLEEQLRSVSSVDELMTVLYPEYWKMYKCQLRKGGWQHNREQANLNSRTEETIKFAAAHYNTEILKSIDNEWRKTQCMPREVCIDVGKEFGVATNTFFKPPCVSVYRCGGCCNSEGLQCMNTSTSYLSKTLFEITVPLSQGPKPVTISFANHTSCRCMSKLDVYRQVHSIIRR


Columns and labels:
[1] = molecular target: T1, human VEGFC (Cat. No. Z03286, Genscript); test: ELISA, plate coated with VEGFC, detection with HRP anti-human IgG
[2] = molecular target: T2, human VEGFA (Cat. No. Z03073, Genscript); test: competition ELISA: plate coated with Eylea, BiFpC2 in dilution series pre-incubated with 5 nM VEGFA, VEGFA bound to Eylea detected. The sheet prints ng/mL, the text prints nM
[3] = molecular target: T1, human VEGFC (Cat. No. Z03286, Genscript); test: SPR (Biacore), protein captured on protein A chip, VEGFC as analyte, 25 C
Experimental: (§1) Human VEGFC (Cat. No.: Z03286-10 μg, Genscript, China) solutions with concentrations of 10, 5, 2.5, 1.25, 0.63, 0.31, 0.16, 0.08, and 0 (blank) nM were produced by diluted into a running buffer. Each analysis cycle comprises: (1) capturing the bispecific protein on flow pool 2 (Fc2), (2) injecting the VEGFC solution onto flow cells 1 and 2 (Fc1 and Fc2) at a rate of 30 μL/minute (for 120 seconds), (3) allowing 1×HBS-EP+buffer to flow at 30 μL/minute through the chip for 360 seconds to monitor the dissociation phase, (4) injecting a 10 mM glycine hydrochloride buffer, pH 1.5, to allow surface regeneration of the chip. The data was processed by Biacore™ Insight Evaluation software, using standard double reference and fitting with a 1:1 binding model, to determine the binding rate (kₐ) and dissociation rate (kd).

[4] = molecular target: T2, human VEGFA (Cat. No. Z03073, Genscript); test: SPR (Biacore), protein captured on protein A chip, VEGFA as analyte, 25 C
Description: The data was processed by Biacore™ Insight Evaluation software, using standard double reference and fitting with a 1:1 binding model, to determine the binding rate (kₐ) and dissociation rate (kd).

[5] = molecular target: T2, human VEGFA (Cat. No. Z03073, Genscript); test: cell-based or functional assay
[6] = molecular target: T1, human VEGFC (Cat. No. Z03286, Genscript); test: cell-based or functional assay
[7] = molecular target: T3, VEGFC-his (Cat. No. VEC-H4225, AcroBio …); test: competition ELISA: plate coated with VEGFR3-Fc, BiFpC2 in dilution series pre-incubated with 2.5 nM VEGFC-his, VEGFC-his bound to VEGFR3-Fc detected with anti-His HRP. The sheet prints ng/mL, the text prints nM
[8] = molecular target: T1, human VEGFC (Cat. No. Z03286, Genscript); test: SPR (Biacore), compared with OPT-302
Experimental: as §1

[9] = molecular target: T2, human VEGFA (Cat. No. Z03073, Genscript); test: ELISA, plate coated with VEGFA, detection with HRP anti-human IgG
[10] = molecular target: T2, human VEGFA (Cat. No. Z03073, Genscript); test: competition ELISA, Eylea coated as competitor, 5 nM VEGFA dimer pre-incubated with BiFpC2
[11] = molecular target: T3, VEGFC-his (Cat. No. VEC-H4225, AcroBio …); test: competition ELISA, VEGFR3-Fc coated as competitor, 2.5 nM VEGFC-his dimer pre-incubated with BiFpC2
[12] = molecular target: T1, human VEGFC (Cat. No. Z03286, Genscript); test: cell-based or functional assay; remark: listed apart in the source
[13] = molecular target: T4, Human VEGFC Protein (His Tag) (Cat. No. …); test: competition ELISA, VEGFC (His Tag) coated, biotinylated human VEGFR3 as competitor, streptavidin-HRP detection
[14] = molecular target: T2, human VEGFA (Cat. No. Z03073, Genscript); test: cell-based or functional assay; remark: listed apart in the source

EC50 (read off the curve) [1] [ng/mL]	IC50 [2] [µg/mL]	Kd [3] [nM]	koff [3] [s⁻¹]	kon [3] [M⁻¹ s⁻¹]	Kd [4] [nM]	koff [4] [s⁻¹]	kon [4] [M⁻¹ s⁻¹]	IC50 (inhibition of VEGFA-induced HUVEC proliferation, CellTiter-Glo) [5] [ng/mL]	IC50 (inhibition of VEGFC-induced HUVEC proliferation, CellTiter-Glo) [6] [µg/mL]	IC50 [7] [ng/mL]	fold of VEGFC affinity against OPT-302 [8] [times]	EC50 (read off the curve) [9] [ng/mL]	IC50 [10] [nM]	IC50 [11] [nM]	IC50 (inhibition of VEGFC-induced HUVEC proliferation, CellTiter-Glo) [12] [ng/mL]	IC50 [13] [µg/mL]	IC50 (inhibition of VEGFA-induced HUVEC proliferation, CellTiter-Glo) [14] [ng/mL]	Binder
~300	0.0106	0.0923	0.000247	2.67e+06	0.0567	0.000856	1.51e+07	25.5	9	4.8	~10	~40	10.6	4.8				BiFpC2 (Fc fusion, also called bispecific protein BiFpC2) SDTGRPFVEMYSEIPEIIHMTEGRELVIPCRVTSPNITVTLKKFPLDTLIPDGKRIIWDSRKGFIISNATYKEIGLLTCEATVNGHLYKTNYLTHRQTNTIIDVVLSPSHGIELSVGEKLVLNCTARTELNVGIDFNWEYPSSKHQHKKLVNRDLKTQSGSEMKKFLSTLTIDGVTRSDQGLYTCAASSGLMTKKNSTFVRVHEKGGGSGGYSMTPPTLNITEESHVIDTGDSLSISCRGQHPLEWAWPGAQEAPATGDKDSEDTGVVRDCEGTDARPYCKVLLLHEVHAQDTGSYVCYYKYIKARIEGTTAASSYVFVRDFEQPFINKPDTLLVNRKDAMWVPCLVSIPGLNVTLRSQSSVLWPDGQEVVWDDRRGMLVSTPLLHDALYLQCETTWGDQDFLSNPFLVHITGNELYDIQLLPRKSLELLVGEKLVLNCTVWAEFNSGVTFDWDYPGKQAERGKWVPERRSQQTHTELSSILTIHNVSQHDLGSYVCKANNGIQRFRESTEVIVHE[left out - human IgG1 Fc]
~300		0.0633	0.0002	3.17e+06	0.0293	0.000236	8.06e+06				~10	~40			85.2	5.41	82.3	BiFpC6 (Fc fusion, also called bispecific protein BiFpC6) SDTGRPFVEMYSEIPEIIHMTEGRELVIPCRVTSPNITVTLKKFPLDTLIPDGKRIIWDSRKGFIISNATYKEIGLLTCEATVNGHLYKTNYLTHRQTNTIIDVVLSPSHGIELSVGEKLVLNCTARTELNVGIDFNWEYPSSKHQHKKLVNRDLKTQSGSEMKKFLSTLTIDGVTRSDQGLYTCAASSGLMTKKNSTFVRVHEKGGGSGGYSMTPPTLNITEESHVIDTGDSLSISCRGQHPLEWAWPGAQEAPATGDKDSEDTGVVRDCEGTDARPYCKVLLLHEVHANDTGSYVCYYKYIKARIEGTTAASSYVFVRDFEQPFINKPDTLLVNRKDAMWVPCLVSIPGLNVTLRSQSSVLWPDGQEVVWDDRRGMLVSTPLLHDALYLQCETTWGDQDFLSNPFLVHITGNELYDIQLLPRKSLELLVGEKLVLNCTVWAEFNSGVTFDWDYPGKQAERGKWVPERRSQQTHTELSSILTIHNVSQHDLGSYVCKANNGIQRFRESTEVIVHE[left out - human IgG1 Fc]
		0.372	0.00403	1.08e+07	0.0191	0.000499	2.61e+07											BiFpC1 (Fc fusion, also called bispecific protein BiFpC1) SDTGRPFVEMYSEIPEIIHMTEGRELVIPCRVTSPNITVTLKKFPLDTLIPDGKRIIWDSRKGFIISNATYKEIGLLTCEATVNGHLYKTNYLTHRQTNTIIDVVLSPSHGIELSVGEKLVLNCTARTELNVGIDFNWEYPSSKHQHKKLVNRDLKTQSGSEMKKFLSTLTIDGVTRSDQGLYTCAASSGLMTKKNSTFVRVHEK[left out - human IgG1 Fc]GGSGGYSMTPPTLNITEESHVIDTGDSLSISCRGQHPLEWAWPGAQEAPATGDKDSEDTGVVRDCEGTDARPYCKVLLLHEVHAQDTGSYVCYYKYIKARIEGTTAASSYVFVRDFEQPFINKPDTLLVNRKDAMWVPCLVSIPGLNVTLRSQSSVLWPDGQEVVWDDRRGMLVSTPLLHDALYLQCETTWGDQDFLSNPFLVHITGNELYDIQLLPRKSLELLVGEKLVLNCTVWAEFNSGVTFDWDYPGKQAERGKWVPERRSQQTHTELSSILTIHNVSQHDLGSYVCKANNGIQRFRESTEVIVHE
		0.1	0.00191	1.91e+07	0.0102	0.000239	2.35e+07											BiFpC4 (Fc fusion, also called bispecific protein BiFpC4) YSMTPPTLNITEESHVIDTGDSLSISCRGQHPLEWAWPGAQEAPATGDKDSEDTGVVRDCEGTDARPYCKVLLLHEVHAQDTGSYVCYYKYIKARIEGTTAASSYVFVRDFEQPFINKPDTLLVNRKDAMWVPCLVSIPGLNVTLRSQSSVLWPDGQEVVWDDRRGMLVSTPLLHDALYLQCETTWGDQDFLSNPFLVHITGNELYDIQLLPRKSLELLVGEKLVLNCTVWAEFNSGVTFDWDYPGKQAERGKWVPERRSQQTHTELSSILTIHNVSQHDLGSYVCKANNGIQRFRESTEVIVHE[left out - human IgG1 Fc]GGSGGGEIVMTQSPSTLSASVGDRVIITCQASEIIHSWLAWYQQKPGKAPKLLIYLASTLASGVPSRFSGSGSGAEFTLTISSLQPDDFATYYCQNVYLASTNGANFGQGTKLTVLGGGGGSGGGGSGGGGSGGGGSEVQLVESGGGLVQPGGSLRLSCTASGFSLTDYYYMTWVRQAPGKGLEWVGFIDPDDDPYYATWAKGRFTISRDNSKNTLYLQMNSLRAEDTAVYYCAGGDHNSGWGLDIWGQGTLVTVSS
